Among all 200,000 compounds or so, about 10 (0.005%) were called active. Inconclusive means that the source gave no clear call. Such entries were picked first, then a sample of the others. Calls follow the shape of the dose curve; as a rule, active = well fitted inhibition curve with a large enough effect; inconclusive = small, poorly fitted or top-dose-only effect, or effect the other way, or another doubt; inactive = no such curve, though single readings can be large or run the other way. Potencies of inconclusive entries are doubtful fits and often do not repeat.
target: Lysosomal alpha-glucosidase (Homo sapiens) (UniProt P10253); test: qHTS Assay for Inhibitors of Human alpha-Glucosidase as a Potential Chaperone Treatment of Pompe Disease; conditions: purified human GAA, 4-MU-alpha-glucoside fluorescence; activity change, negative = inhibition: at 76.9 µM (top of the series) unless noted;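 as to activity change, negative = inhibition: plate controls were uninhibited enzyme wells for no effect and no-enzyme background for full effect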
In short: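 Human alpha-glucosidase, 4 nM, pre-mixed with test compounds before 400 uM 4-methylumbelliferyl substrate; 20 min room temperature at pH 5.0. Fluorescence read after pH 10 stop; AC50 values from Hill-equation fits.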
Potency is read from the fitted curve at half-maximal effect; tags tell the direction and shape of the fitted curve.

Potency, inconclusive:
CN(C)c1ccc(NC(=O)c2cccc(C(=O)Nc3ccc(N(C)C)cc3)n2)cc1 2 µM [inhibitor, partial curve]
Cc1csc(=Nc2ccc(S(=O)(=O)N3CCOCC3)cc2)n1Cc1ccco1 28.2 µM [inhibitor, single point]
CC1=CC(c2ccccc2)n2nc(N3C(=O)CCC3=O)nc2N1 (stereo not given) 39.8 µM [activator, single point]
COc1cccc(NC(=O)c2ccccc2-c2nc(-c3ccc(F)cc3)no2)c1 7.94 µM [inhibitor, full curve]
O=C(c1cccs1)N1CCCC1 35.5 µM [inhibitor, single point]
COc1ccc(-c2ccc(SCC(=O)N3c4ccccc4CC3C)nn2)cc1OC (stereo not given) 56.2 µM [inhibitor, single point]
O=C(O)CCn1cc(C2CC(c3ccccc3)=NN2c2ccccc2)c(-c2ccccc2)n1 (stereo not given) 31.6 µM [activator, partial curve]
CC1(C)CC(=O)C2=C(C1)c1c(ccc3ccccc13)NC2c1ccco1 (stereo not given) 5.01 µM [activator, partial curve]
O=C(c1ccco1)N1CCN(S(=O)(=O)c2ccc(S(=O)(=O)NC3CCCC3)cc2)CC1 14.1 µM [inhibitor, partial curve]
Cn1nc(-c2ccc(C(=O)Nc3cccnc3)cc2)c2ccccc2c1=O 39.8 µM [inhibitor, partial curve, poor fit]
COc1ccc(N2C(=O)C3CCCN3C2c2cccc(OC)c2OC)cc1 (stereo not given) 22.4 µM [inhibitor, partial curve]
Cc1cc2cc(CNC(=O)Nc3ccccc3)ccc2[nH]1 28.2 µM [inhibitor, single point]
CN1C(=O)N(C)C2C1NC(=O)N2C (stereo not given) 50.1 µM [inhibitor, single point]
CCOC(=O)N1CCN(C(=O)CSCc2ccccc2C)CC1 1 µM [inhibitor, single point]
CCS(=O)(=O)N1CCN(Cc2nc3ccccc3c(=O)[nH]2)CC1 28.2 µM [inhibitor, single point]
COc1cc(CNC2CCCC2)cc(Cl)c1OCc1ccccc1F 6.31 µM [inhibitor, full curve]
COc1ccc(S(=O)(=O)N(CC(=O)NCc2cccnc2)c2ccc(F)cc2)cc1OC 11.2 µM [inhibitor, single point]
COc1ccccc1NC(=O)C12CC3CC(C1)CC(c1ccc(C)cc1)(C3)C2 11.2 µM [inhibitor, single point]
O=C(OC1CCCCC1)c1ccc2c(c1)C1C=CCC1C(C(=O)O)N2 (stereo not given) 44.7 µM [inhibitor, single point]
Cc1cc(C)n(Cc2ccc(C(=O)NCCC3=CCCCC3)o2)n1 31.6 µM [inhibitor, single point]
CCCCN(C)CCNC(=O)c1ccc2c(c1)NC(=O)C(N1CCCCC1)S2 (stereo not given) 56.2 µM [inhibitor, single point]
O=[N+]([O-])c1ccc(N2CCN(S(=O)(=O)c3ccccc3)CC2)cc1NCC1CCCO1 (stereo not given) 14.1 µM [inhibitor, partial curve]
O=c1oc(-c2cccs2)nc2c1cnn2-c1ccccc1 35.5 µM [activator, single point]
COc1cc(NC(=S)NCc2cccnc2)cc(OC)c1OC 5.62 µM [inhibitor, single point]
Cc1ccc(S(=O)(=O)N(C)C)cc1NC(=S)N1CCc2ccccc21 6.31 µM [inhibitor, single point]
CCc1c(C)c2cc(Cl)c(O)c(CN(C)C)c2oc1=O 31.6 µM [activator, partial curve]
Cc1ccc(Cl)cc1N1CCN(Cc2nnnn2Cc2ccco2)CC1 0.178 µM [inhibitor, partial curve, poor fit]
c1ccc(C2NCCc3ccccc32)cc1 (stereo not given) 5.01 µM [inhibitor, single point]
CC(C)(C)OC(=O)NCCCCCc1nnc(SCc2ccc(F)cc2)o1 50.1 µM [inhibitor, partial curve]
COc1cc(NC(=O)CSc2nc(C)c(C)c(C)n2)c(C)cc1[N+](=O)[O-] 56.2 µM [inhibitor, single point]
O=C(O)c1ccc(-n2nc(C(F)(F)F)c3c2CCCC3)cc1 20 µM [inhibitor, single point]
Cc1cccc(NC(=S)N2N=CCC2c2ccccc2)c1 (stereo not given) 44.7 µM [inhibitor, partial curve, poor fit]
Cc1nc2ccc(NC(=O)c3cccs3)cc2c(=O)n1Cc1ccc(Cl)cc1 50.1 µM [inhibitor, partial curve, poor fit]
CC(C)Cn1c(=O)c(C(=O)Nc2ccccc2S(N)(=O)=O)c(O)c2ccccc21 3.98 µM [inhibitor, single point]
CCN(C1=NS(=O)(=O)c2ccccc21)N(CC)S(=O)(=O)c1ccc(C)cc1 50.1 µM [inhibitor, single point]
CN(C)c1oc(/C=C/c2ccccc2)nc1C#N 31.6 µM [activator, partial curve]
COc1ccc(/C=C2/N=C(SC)NC2=O)cc1OC 39.8 µM [inhibitor, single point]
O=[N+]([O-])c1ccc(N2CCN(S(=O)(=O)c3ccc(Cl)cc3)CC2)cc1NCc1cccnc1 20 µM [inhibitor, partial curve, poor fit]
N#CC1=C(N)C(C#N)(C#N)[C@H](c2ccsc2)[C@H]2COCC=C12 28.2 µM [inhibitor, single point]
COCCNC(=O)c1cc2c(-c3ccc(Cl)cc3)nn(C)c2s1 1.12 µM [inhibitor, single point]
C=CCc1ccc(OCC(O)COc2ccc(CC=C)cc2OC)c(OC)c1 56.2 µM [inhibitor, single point]
Cc1ccc2c(c1)Cc1nc3ccccc3nc1-2 35.5 µM [activator, partial curve]
CCCOc1ccc(C(CC(=O)O)NC(=O)c2ccc3c(c2)OCO3)cc1 (stereo not given) 50.1 µM [inhibitor, single point]
C=C(C)CNC(=S)NNC(=O)CCn1c2ccccc2c2ccccc21 25.1 µM [inhibitor, partial curve]
Cn1cnnc1SCC(=O)OCN1C(=O)c2ccccc2C1=O 56.2 µM [inhibitor, single point]
O=C(O)c1ccc(N/N=C/C=C/c2ccccc2[N+](=O)[O-])cc1 50.1 µM [inhibitor, single point]
Cc1cc(C)cc(-c2nc(-c3ccncc3)no2)c1 12.6 µM [inhibitor, partial curve]
O=C(CSc1nnc(COc2ccccc2)o1)N1CCOCC1 11.2 µM [inhibitor, single point]

Activity change, negative = inhibition, inconclusive:
O=C(NN1C(=O)C2C3C=CC(C3)C2C1=O)c1ccccc1 (stereo not given) 8.74% [activator]
Cc1ccc(-n2c(COc3cccc(C)c3)n[nH]c2=S)cc1 11.2% [activator]
O=C(CC1C(=O)NCCN1C(=O)Nc1ccccc1)Nc1cccc(Cl)c1 (stereo not given) 11.2% [activator]
CN(C)CCCN(Cc1cc2cc3c(cc2[nH]c1=O)OCO3)C(=S)Nc1cccc(Cl)c1 25.1% [activator]
COc1ccc(OC)c(Cc2nnc(CCC(=O)N3CCC(N4CCCCC4)CC3)o2)c1 18.6% [activator]
Cc1cccc(N(C(=O)Cn2nnc3ccccc32)C(C(=O)NC(C)(C)C)c2ccsc2)c1C (stereo not given) -20% [inhibitor]
COc1ccccc1CNC(=O)C(C)c1ccc([N+](=O)[O-])cc1 (stereo not given) 15.9% [activator]
CC(C)OC(=O)CSc1nc2cccnc2n1C1CCCCC1 -15.5% [inhibitor]
COc1ccc(NC(=O)c2cnc(C)cn2)cc1-n1cnnn1 -18.8% [inhibitor]
Cn1cc(CN2CCC(N3CCNC(=O)CC3)CC2)c(-c2ccccc2F)n1 11.6% [activator]
Cc1c(C(=O)Nc2ccc3oc(-c4cccnc4)nc3c2)oc2ccccc12 22.6% [activator]
Cc1ccc(S(=O)(=O)N2CCCC(c3nc(-c4ccc(C)o4)no3)C2)cc1 (stereo not given) -15.1% [inhibitor]
O=C(Nc1ncccc1Cl)c1ccc2c(c1)OCCO2 -18.1% [inhibitor]

Activity change, negative = inhibition, inactive:
Oc1ccc(O)c(Cc2nc3ccccc3s2)c1 -18%
O=C(NCc1ccccn1)C(=O)NCc1ccccn1 4.94%
CC(C)CC(=O)NC(=S)Nc1nc(-c2ccccc2)cs1 -1.43%
CCc1sc(C(C2C(=O)CC(C)(C)CC2=O)C2C(=O)CC(C)(C)CC2=O)cc1[N+](=O)[O-] 8.16%

Source: PubChem BioAssay AID1466 (National Center for Advancing Translational Sciences (NCATS), 2008)
